Data reported in PubChem BioAssay (NCATS).
Several values for one entry are separate records, joined by “and”; a condition that tells them apart may be missing. Identical values can stand only once. Inconclusive means that the source gave no clear call. Such entries were picked first, then a sample of the others. Where the call is inconclusive, the potency comes from a doubtful curve fit. Activity calls are given as the source filed them. Calls come from the whole dose curve; as a rule, active = well fitted curve in the direction sought with a large enough effect; inconclusive = small, poorly fitted or top-dose-only effect, or another doubt; inactive = no such curve, though single readings can be large; an effect the other way counts as inactive or inconclusive.

Experiments:
[1] = qHTS of pediatric cancer cell lines to identify multiple opportunities for drug repurposing: Primary screen for Saos-2 cells (AID 1347097); conditions: Saos-2 viability, CellTiter-Glo ATP luminescence, 48 h; activity change, negative = cytotoxic: at 46 µM (top of the series); note: nearly all actives have a fitted effect of over 40% in size
Method in brief: (§1)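 Quantitative HTS format: each compound titrated (MIPE 11 points from 0.78 nM, NPC 8 points from 0.59 nM) onto cells plated 5 hours earlier. After 48 h at 37 degrees C, CellTiter-Glo luminescence was recorded.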

[2] = qHTS of pediatric cancer cell lines to identify multiple opportunities for drug repurposing: Primary screen for OHS-50 cells (AID 1347103); note: nearly all actives have a fitted effect of over 40% in size
Method in brief: (§2)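 Cells (500-1,000/well) rested 5 h, then received compounds for 48 h; metabolically active cells were measured by CellTiter-Glo luminescence. Final concentrations spanned up to 46 µM (MIPE, 11-point) or 0.59 nM-46 µM (NPC, 8-point) in primary screens, 11-point in follow-ups.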

[3] = qHTS of pediatric cancer cell lines to identify multiple opportunities for drug repurposing: Primary screen for LAN-5 cells (AID 1347100); conditions: LAN-5 neuroblastoma viability, CellTiter-Glo luminescence, 48 h; activity change, negative = cytotoxic: at 46 µM (top of the series)
Method in brief: (§3)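 Cells (500-1,000/well) in growth media were settled 5 h at 37 degrees C, then given compounds for 48 h. Viability was read as CellTiter-Glo luminescence. Primary runs used MIPE at 11 points (0.78 nM-46 µM) and NPC at 8 points (0.59 nM-46 µM); follow-ups used 11 points.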

[4] = qHTS of pediatric cancer cell lines to identify multiple opportunities for drug repurposing: Primary screen for BT-12 cells (AID 1347101); note: nearly all actives have a fitted effect of over 25% in size
Method in brief: as §2

[5] = qHTS of pediatric cancer cell lines to identify multiple opportunities for drug repurposing: Primary screen for NB1643 cells (AID 1347099); note: nearly all actives have a fitted effect of over 50% in size
Method in brief: as §1

[6] = qHTS of pediatric cancer cell lines to identify multiple opportunities for drug repurposing: Primary screen for Rh18 cells (AID 1347102); note: nearly all actives have a fitted effect of over 65% in size
Method in brief: as §3

[7] = qHTS of pediatric cancer cell lines to identify multiple opportunities for drug repurposing: Primary screen for RD cells (AID 1347104); note: nearly all actives have a fitted effect of over 55% in size
Method in brief: as §1
Potency is the fitted concentration of half-maximal effect; tags give direction and shape of the fitted curve.

## NC(=O)c1ccc2[nH]ccc2c1
[1]
  Potency: inconclusive: 4.69 µM [cytotoxic, full curve]
[2]
  Potency: inconclusive: 19.3 µM [cytotoxic, partial curve, poor fit]

## CCOC(=O)C(C)(C)Oc1ccc(Cl)cc1
[1]
  Potency: inconclusive: 6.62 µM [cytotoxic, partial curve]
[3]
  Potency: inconclusive: 37.2 µM [cytotoxic, single point]
[4]
  Potency: inconclusive: 17.2 µM [cytotoxic, partial curve]
[2]
  Potency: inconclusive: 15.3 µM [cytotoxic, partial curve, poor fit]

## C[C@H]1[C@H](NC(=O)C(=NOC(C)(C)C(=O)O)c2csc(N)n2)C(=O)N1S(=O)(=O)O
[1]
  Potency: inactive
[4]
  Potency: inactive
[2]
  Potency: inactive

## CN(CCOc1ccc(CC2SC(=O)NC2=O)cc1)c1ccccn1 (configuration not stated)
[1]
  Potency: inconclusive: 14.8 µM [cytotoxic, partial curve]
[5]
  Potency: inconclusive: 14.8 µM [cytotoxic, single point]
[2]
  Potency: inactive

## Cn1c(=O)c(Oc2ccc(F)cc2F)cc2cnc(NC3CCOCC3)nc21
[1]
  Potency: inconclusive: 2.96 µM [cytotoxic, partial curve]
[4]
  Potency: inactive

## NC(=O)[C@@H](CCC(F)(F)F)N(Cc1ccc(-c2ncon2)cc1F)S(=O)(=O)c1ccc(Cl)cc1
[1]
  Potency: inconclusive: 20.9 µM [cytotoxic, partial curve]
[5]
  Potency: active: 23.5 µM
[4]
  Potency: inconclusive: 30.6 µM [cytotoxic, partial curve, poor fit]
[2]
  Potency: inconclusive: 0.137 µM [cytotoxic, partial curve, poor fit]

## CC(C)(C)c1cc(C(=O)O)c(NC(=O)Nc2ccc3[nH]ncc3c2)s1
[1]
  Potency: inconclusive: 5.26 µM [cytotoxic, partial curve, poor fit]
[4]
  Potency: inactive
[6]
  Potency: inactive
[7]
  Potency: inconclusive: 8.33 µM [cytotoxic, partial curve, poor fit]

## O=C(CO)N1CCC(c2[nH]nc(-c3ccc(Cl)cc3)c2-c2ccncn2)CC1
[1]
  Potency: inconclusive: 11.8 µM [cytotoxic, partial curve]
[2]
  Potency: inactive

## O=C1c2c(O)cc(O)cc2OC(c2ccc(O)c(O)c2)C1O (configuration not stated)
[1]
  Potency: inconclusive: 7.43 µM [cytotoxic, partial curve]
[3]
  Potency: inconclusive: 37.2 µM [cytotoxic, single point]
[4]
  Potency: inactive
[6]
  Potency: inactive
[2]
  Potency: inconclusive: 43.2 µM [cytotoxic, partial curve, poor fit]

## COc1nccc(-c2c(-c3ccc(F)cc3)ncn2C2CCNCC2)n1
[1]
  Potency: inconclusive: 8.33 µM [cytotoxic, partial curve]
[4]
  Potency: inconclusive: 9.68 µM [cytotoxic, partial curve, poor fit]
[7]
  Potency: inconclusive: 37.2 µM [cytotoxic, single point]

## C[C@]12CC[C@@H]3c4ccc(O)cc4C[C@@H](CCCCCCCCCS(=O)CCCC(F)(F)C(F)(F)F)[C@H]3[C@H]1CC[C@H]2O (some centres not stated)
[1]
  Potency: inconclusive: 7.43 µM [cytotoxic, partial curve]
[4]
  Potency: inconclusive: 12.2 µM [cytotoxic, partial curve, poor fit]
[6]
  Potency: inconclusive: 23.5 µM [cytotoxic, single point]
[7]
  Potency: inconclusive: 14.8 µM [cytotoxic, partial curve, poor fit]

## CC(=O)O[C@]1(C(C)=O)CC[C@@H]2[C@@H]3C[C@H](C)C4=CC(=O)CC[C@]4(C)[C@H]3CC[C@@]21C
[1]
  Potency: inconclusive: 18.7 µM [cytotoxic, partial curve]
[3]
  Potency: inconclusive: 8.33 µM [cytotoxic, full curve, poor fit]
[6]
  Potency: inconclusive: 37.2 µM [cytotoxic, single point]
[7]
  Potency: inconclusive: 37.2 µM [cytotoxic, single point]

## COC(c1ccccc1)(c1ccccc1)[C@H](Oc1nc(C)cc(C)n1)C(=O)O
[1]
  Potency: inconclusive: 37.2 µM [cytotoxic, partial curve, poor fit]
[5]
  Potency: inactive
[4]
  Potency: inactive
[2]
  Potency: inactive

## CC(C)(C#N)c1cc(Cn2cncn2)cc(C(C)(C)C#N)c1
[1]
  Potency: inconclusive: 7.43 µM [cytotoxic, partial curve]
[3]
  Potency: inactive

## CC(C)(C)[N+]([O-])=Cc1ccc(S(=O)(=O)O)cc1S(=O)(=O)O
[1]
  Potency: inactive
[7]
  Potency: inactive

## Clc1ccc(C(c2ccccc2Cl)C(Cl)Cl)cc1 (configuration not stated)
[1]
  Potency: active: 16.8 µM and active: 18.7 µM
[4]
  Potency: inconclusive: 38.5 µM [cytotoxic, partial curve, poor fit]
[6]
  Potency: inconclusive: 26.4 µM [cytotoxic, single point]
[2]
  Potency: inconclusive: 38.9 µM [cytotoxic, single point] and inconclusive: 27.3 µM [cytotoxic, partial curve]
[7]
  Potency: inconclusive: 23.7 µM [cytotoxic, single point] and inconclusive: 18.7 µM [cytotoxic, partial curve]

## Cc1cccc(-c2nn(C(=S)Nc3ccccc3)cc2-c2ccnc3ccccc23)n1
[1]
  Potency: inconclusive: 13.2 µM [cytotoxic, partial curve]
[4]
  Potency: inconclusive: 24.3 µM [cytotoxic, single point]
[2]
  Potency: inconclusive: 6.85 µM [cytotoxic, partial curve]

## CC(C)(C)OC(=O)N[C@H]1CCCCCC=C[C@@H]2C[C@@]2(C(=O)NS(=O)(=O)C2CC2)NC(=O)[C@@H]2C[C@@H](OC(=O)N3Cc4cccc(F)c4C3)CN2C1=O
[1]
  Potency: inconclusive: 18.7 µM [cytotoxic, partial curve]
[7]
  Potency: inactive

## O=C(O)C(O)Cc1ccc(O)c(O)c1 (configuration not stated)
[1]
  Potency: inconclusive: 1.32 µM [cytotoxic, partial curve]
[3]
  Potency: inconclusive: 29.6 µM [cytotoxic, single point]

## O=C(NC(Cc1cc(=O)[nH]c2ccccc12)C(=O)O)c1ccc(Cl)cc1 (configuration not stated)
[1]
  Potency: inconclusive: 23.7 µM [cytotoxic, single point]
[3]
  Potency: inactive
